Laboratory results as given in paper PMC7143554.
Results are given in words; binding and its absence hold for the method and conditions named. For part of these data: Binding seen in cells or lysates may run through a third protein. Some entries that bind do so weakly or less than the wild type.

Chains of the proteins cited; added tags and fusions are not shown.
UniProt D6YSK5: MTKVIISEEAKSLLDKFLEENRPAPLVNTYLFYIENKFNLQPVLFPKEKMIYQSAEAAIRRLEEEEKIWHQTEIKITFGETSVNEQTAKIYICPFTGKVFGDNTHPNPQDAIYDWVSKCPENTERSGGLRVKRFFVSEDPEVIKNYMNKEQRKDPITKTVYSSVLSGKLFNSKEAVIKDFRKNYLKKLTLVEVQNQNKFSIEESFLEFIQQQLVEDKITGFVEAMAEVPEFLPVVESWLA
UniProt D6YUB1: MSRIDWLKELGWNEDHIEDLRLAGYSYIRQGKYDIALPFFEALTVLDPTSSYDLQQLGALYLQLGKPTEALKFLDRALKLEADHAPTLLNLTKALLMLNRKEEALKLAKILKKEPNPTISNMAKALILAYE

Experiments:
[1] = target: GST-tagged Wcw_1706 (Waddlia chondrophila) (UniProt D6YSK5); assay: pull-down; Pierce GST Protein Interaction Pull-Down Kit; GST-tagged Wcw_1706 with His-tagged chaperones; immunoblot (anti-GST, anti-His)
[2] = target: His-tagged Wcw_0348 (T3SS class II chaperone, tetratricopeptide repeat-containing protein) (Waddlia chondrophila) (UniProt D6YUB1); assay: pull-down; Pierce Pull down PolyHis kit; His-tagged chaperones from E. coli cultures fixed on HisPur Cobalt resin (1.5 h, 4 °C, Tris buffer, 10 mM imidazole), 5 washes with 20 mM imidazole; purified non-tagged Wcw_1706 added 2 h at 4 °C in phosphate buffer, 40 mM imidazole, 500 mM NaCl; eluted with 290 mM imidazole; immunoblot with anti-Wcw_1706; both purified
[3] = target: His-tagged Wcw_0616 (T3SS chaperone, counterpart of Multiple Cargo Secretion Chaperone Mcsc) (Waddlia chondrophila) (UniProt D6YV23); assay: as above
[4] = target: His-tagged Wcw_0969 (T3SS chaperone, homolog of SlcI) (Waddlia chondrophila) (UniProt D6YW18); assay: as above

Substance	binding [1]	binding [2]	binding [3]	binding [4]
His-tagged Wcw_0348 (T3SS class II chaperone, tetratricopeptide repeat-containing protein) (from UniProt D6YUB1 1-131)	binds			
Wcw_1706 (non-tagged, purified) (from UniProt D6YSK5 1-240)		binds	no binding	no binding
His-tagged Wcw_0969 (T3SS chaperone, homolog of SlcI) (from UniProt D6YW18 1-168)	no binding			
His-tagged Wcw_0616 (T3SS chaperone, counterpart of Multiple Cargo Secretion Chaperone Mcsc) (from UniProt D6YV23 1-153)	no binding			
